Results on 83 compounds are retold here after PubChem BioAssay (NCI).

This assay concerns NCI-H322M lung. The assay can be described thus: inhibition of tumour cell growth, NCI panel, 48 h.

Where “and” joins values, the source holds several entries; their conditions need not be identical. Equal values may be shown once.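 Growth conditions: 96-well plates. Treatment: test compound, 48 hours, 5 concentrations. Analysis: linear interpolation between bracketing concentrations; unreached endpoints set to highest concentration. GI50: concentration for 50% inhibition of growth. TGI marks complete inhibition of growth.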

`CC(=O)OCCN1c2ccccc2Sc2cnccc21` registered a TGI of more than 10 µM.
`O=C(/N=N/C(=O)OCc1ccccc1)OCc1ccccc1` registered a TGI of more than 100 µM.
For the compound `CC1=CC(=Nc2ccc(N(CCCl)CCCl)cc2)C=C(C)C1=O`, the GI50 was 10.9 µM and the TGI is 33.2 µM.
In turn, `Cc1nn(-c2cc(Cl)ccc2[N+](=O)[O-])c(C)c1Cl` returned a TGI of more than 100 µM.
Compound `C/C(CC(=O)Nc1ccc(C)cc1C)=N/N=C(N)N` gave a TGI of more than 100 µM.
In turn, `O=[N+]([O-])c1ccc(NC(=S)N=Nc2c(O)[nH]c3ccc(Br)cc23)cc1` yielded a TGI of 23.5 µM.
The same measure, in the same setting: then `CC1(C)C=C(S(=O)(=O)c2ccccc2)Oc2ccccc2O1`, with more than 100 µM.
With `COc1ccc(NC2=CC(=O)C(=O)c3ccccc32)nn1`, the TGI is 15.7 µM.
`CCN1CCC(O)(C(C(=O)O)c2ccccc2)CC1` (stereo unspecified) yielded a TGI of more than 100 µM.
Take `C=CC(=O)N1CC2(CCN(c3nc(OC4CCN(CCCOC)CC4)nc4c(OCC(F)(F)F)c(-c5c(C)ccc6[nH]ncc56)c(C5CC5)cc34)CC2)C1`: the GI50 was 2.35 µM and the TGI was 6.1 µM.
In turn, `C=C1CC(C)(c2ccc(Nc3nc4ccccc4c4occc34)cc2)OC1=O` (stereo unspecified) yielded a TGI of 35.6 µM.
For the compound `CC(=O)OC[C@]1(C)C=C2C(=O)[C@](C)(O)C3(CC3)C(C)=C2[C@H]1O`, the GI50 is 0.195 µM and the TGI was 0.673 µM.
`Cc1cn([C@@H]2C[C@H]2CO)c(=O)[nH]c1=O` displayed a TGI of more than 100 µM.
As to `CC[C@]1(O)C[C@@H]2CN(CCc3c([nH]c4ccccc34)[C@@](C(=O)OC)(c3cc4c(cc3OC)N(C)[C@H]3[C@@](O)(C(=O)OC)[C@H](OC(C)=O)[C@]5(CC)C=CCN6CC[C@]43[C@@H]65)C2)C1`, the GI50 is less than 0.01 µM and the TGI came out at 52.5 µM.
As for `O=C(/C=C/c1c(O)ccc2ccccc12)c1cccc(O)c1`, the TGI was more than 100 µM.
On to `CCC(C)C(=O)OC1CC2(C)C(c3ccoc3)OC(=O)CC23OC2(C)OC34C(OC(=O)C(C)C)C3(O)C(OC(=O)C5(C)OC5C)C5(C)CC3(O)C(C)(C5CC(=O)OC)C14O2` (stereo unspecified), for which the TGI was more than 100 µM.
For the compound `O=c1[nH]ncc(Br)c1Br`, the GI50 is 3.07 µM and the TGI was 12 µM.
Regarding `Cn1c2ccccc2n2c(=O)c3cc([N+](=O)[O-])ccc3c(C#N)c12`, the TGI is more than 100 µM.
The compound `CCOc1cc(-c2nc3ccccn3c2/N=C/c2cc(Br)ccc2O)ccc1O` registered a TGI of more than 100 µM.
Regarding `COc1cc2c(c(O)c1Br)C(=O)c1c(O)cc(C[C@H](C)O)cc1[C@H]2[C@H]1c2cc(C[C@H](C)O)cc(O)c2C(=O)c2c1cc(OC)c(Br)c2O`, the GI50 is 15.1 µM and 27.3 µM; the TGI is 67.5 µM and > 100 µM.
`CC(=O)OC/C=C(/C=C/CNC1CCCCC1)OC(C)=O`: the TGI is 52.9 µM.
Compound `CCC(C(=O)c1ccc(OC)c(OC)c1)N(C(=O)C(F)(F)F)C(C)c1ccccc1` (stereo unspecified) showed a TGI of more than 100 µM.
`O=C(N/N=C/c1ccco1)c1cc(I)cc(I)c1O` returned a TGI of more than 50 µM.
`O=C(CSc1n[nH]c(=O)[nH]c1=O)NNC(=O)c1cccc2nc3ccccc3nc12` gave a TGI of more than 100 µM.
`COc1ccc2c(c1)CN1C(=N2)CSC1c1ccccc1Cl` (stereo unspecified) showed a TGI of 45.2 µM.
`Cc1cccc(C)c1NC(=O)C(=O)C1C(=O)NC(=O)NC1=O` registered a TGI of more than 100 µM.
`C=CCCCCCCCCC(=O)[O][Sn]([CH2]CCC)([CH2]CCC)[CH2]CCC`: the GI50 is 0.163 µM and the TGI was 0.328 µM.
Consider `CCCn1cnc2c(SCc3ccccc3Cl)nc(N)nc21`, for which the GI50 was 35 µM and the TGI is more than 100 µM.
Compound `COCc1nc2c(OC)cc(-c3nc4ccc(N5CCN(C)CC5)cc4[nH]3)c(OC)c2[nH]1` gave a TGI of more than 100 µM.
Turning to `CCOc1cc2c(Cl)ncnc2c(OCC)c1OCC`, the GI50 was 3.9 µM and the TGI was determined as 14.2 µM.
The like results for `Oc1ccc(CN2CCC(N3CCCCC3)CC2)c2cccnc12` were, in that order, 26.8 µM and more than 100 µM.
`OCC(O)CC[CH2][Sn]([Br])([c]1ccccc1)[c]1ccccc1` (stereo unspecified): the GI50 was 6.54 µM and the TGI was more than 100 µM.
In turn, `CC(C)(C)C1CCC2(CC1)c1[nH]c3ccccc3c1C1(CCC(C(C)(C)C)CC1)c1[nH]c3ccccc3c12` (stereo unspecified) showed a TGI of more than 100 µM.
Consider `COc1cc(C2=NOC(c3cc(OC)c(OC)c(OC)c3)C2)ccc1OCCCCOc1cc2c(cc1OC)C(=O)N1CCC[C@H]1C=N2` (stereo partly specified), for which the GI50 is 0.582 µM and the TGI was found to be 3.3 µM.
In the case of `CS(=O)(=O)c1ccc([C@H]2O[C@@H](CO)C[C@]2(O)c2ccc(S(C)(=O)=O)cc2)cc1`, the GI50 is more than 100 µM and the TGI was more than 100 µM.
As for `CCC(C)c1c(Cl)nc(Cl)nc1Cl` (stereo unspecified), the TGI is 22.9 µM.
`O=C1c2cc(Cl)ccc2S(=O)(=O)c2c(NCCCNCCO)nc3ccccc3c21`: the GI50 was 6.13 µM and the TGI is 19 µM.
On to `CC[CH2][Sn]([CH2]CC)([O]C(=O)c1cccnc1SC)[O][Sn]([CH2]CC)([CH2]CC)[O]C(=O)c1cccnc1SC`, for which the GI50 was 2.04 µM and the TGI stood at 4.84 µM.
As to `O=C1Nc2c(C(F)(F)F)cccc2[C@]1(c1ccc(O)cc1)c1ccc(OC(F)(F)F)cc1`, the GI50 is 7.5 µM and the TGI turned out to be 20.3 µM.
Compound `O=C1O[C@@H](c2ccc3c(c2)OCO3)C2C(=O)O[C@@H](c3ccc4c(c3)OCO4)C12` (stereo partly specified) came in with a TGI of more than 100 µM.
As for `O=C1CSC(c2cccs2)N1c1nc2cc3sc(N4C(=O)CSC4c4cccs4)nc3cc2s1` (stereo unspecified), the TGI is more than 50 µM.
`COc1ccc(-c2cc(=O)c3c(OC)c(OC)c(OC)cc3o2)cc1` displayed a TGI of more than 100 µM.
`N#Cc1cc2c(cc1Cl)Sc1nccn1S2(=O)=O` gave a TGI of 8.69 µM.
Same read-out and setting: with `Nc1c(C(=O)c2ccc(Cl)cc2)[nH]c(NCc2ccccc2)c1C(=S)Nc1ccccc1` the figure was 5.28 µM; with `c1ccc2c3c(c(N4CCOCC4)nc2c1)CCCC3`, more than 100 µM.
On to `CCCCc1ccc(Nc2nc3c(ncn3COCCO)c(=O)[nH]2)cc1`, for which the TGI is more than 100 µM.
In turn, `O=C1CCC(=O)N2CCCCN12` had a TGI of more than 100 µM.
The compound `O=C(CC1=NCCN1)c1ccccc1` showed a TGI of more than 750 µM.
`O=C(Cc1ccc([N+](=O)[O-])cc1)OCC#CCOC(=O)Cc1ccc([N+](=O)[O-])cc1`: the TGI was more than 10 µM.
In turn, `CN(C)CCn1c(=O)c2ccc(NCCCN(C)CCCNc3ccc4c(=O)n(CCN(C)C)c(=O)n5c6ccc([N+](=O)[O-])cc6c(=O)c3c45)c3c(=O)c4cc([N+](=O)[O-])ccc4n(c1=O)c23` displayed a TGI of 1.24 µM.
Take `O=C(N/N=C/c1ccccc1O)c1ccccc1Nc1ccnc(C(F)(F)F)c1`: the GI50 was 0.3 µM and the TGI was more than 100 µM.
Regarding `COc1ccc(C2=CC3CCC2C3)cc1` (stereo unspecified), the TGI is more than 100 µM.
Turning to `Cn1c2ccccc2c2c(-c3ccccc3)[n+]3ccncc3nc21`, the GI50 was more than 100 µM and the TGI is more than 100 µM.
`O=[N+]([O-])c1ccc(-c2ccc(-c3csc(Nc4ccccn4)n3)o2)cc1` gave a TGI of more than 100 µM.
In turn, `C[C@]12CC[C@H]3[C@@H](CC=C4C[C@@H](O)CC[C@@]43C)[C@@H]1CC[C@@H]2N(CCO)CCO` displayed a TGI of more than 100 µM.
As to `C/C(CC(=O)Nc1cc(Cl)c(Cl)cc1Cl)=N\NC(N)=O`, the TGI is more than 100 µM.
Turning to `O=C(O)C(CO)NC(=O)n1c2ccccc2c2ccccc21` (stereo unspecified), the TGI is more than 100 µM.
Consider `Cc1cn(C(C)OCCN2C(=O)c3ccccc3C2=O)c(=O)[nH]c1=O` (stereo unspecified), for which the TGI was more than 100 µM.
Still for that read-out and setting: then `Brc1cccc(N=NN2CCCC2)c1`, with more than 100 µM; and `CCOn1c(C2(CC3CCN(C(=O)c4ccccc4)CC3)OCCO2)cc2ccccc21`, with 35.4 µM.
Same read-out and setting: then `O=C1/C(=C/c2ccccc2)CNC/C1=C\c1ccccc1`, with 12.2 µM; and `NC(=O)c1cc2ccccc2o/c1=N/O`, with more than 100 µM; and `CCCCN=C(NC#N)NCCCC`, with more than 100 µM.
For `O/N=C/C1c2ccccc2-c2ccccc21`, the TGI is 35.7 µM.
For the compound `CNC(=O)N(CCC#N)[C@H]1CCCC[C@@H]1N(C(=O)NC)c1ccccc1`, the TGI is more than 100 µM.
Take `COc1ccc(-c2cc(=O)c3ccc(O)cc3o2)cc1OC`: the TGI is more than 100 µM.
Consider `O=C(Nc1cccc(O)c1)C(=O)C(C(=O)c1ccccc1F)C1OC(=O)c2ccccc21` (stereo unspecified), for which the TGI turned out to be 57.3 µM.
In the case of `CC(=O)OCC(OC(C)=O)C1C[C@H]2O[C@@H]3[C@H](C[C@H]2O1)O[C@@]1(C[C@@H]3C)C[C@H](C)[C@@H]2O[C@]3(C[C@@H]2O1)C[C@H]1O[C@H]2[C@H](C)[C@H]4OC(=O)CC5CC[C@H]6OC7[C@H]8O[C@]9(CC[C@H]%10CC(O)(CO)[C@H](CC[C@H]%11C[C@@H](C)C(O)(CO)C(C[C@@H]4O[C@H]2C[C@H]1O3)O%11)O%10)CC8O[C@@H]7[C@@H](O9)[C@H]6O5` (stereo partly specified), the TGI was 0.0865 µM.
As for `CCN(CC)c1ccc(/C=C/c2ccc3cc(C)ccc3[n+]2CC)cc1`, the GI50 is 0.405 µM and the TGI was determined as 11.7 µM.
`CCC(=O)Oc1c2ccsc2c(OC(=O)CC)c2ccsc12` displayed a TGI of 3.19 µM.
`N#Cc1c(-c2ccc(F)cc2)nc(N/N=C/c2c[nH]c3ccccc23)nc1N1CCOCC1`: the GI50 was 15 µM and the TGI is more than 100 µM.
For `NC(=O)c1ccc(I)c(N)c1`, the GI50 was more than 100 µM and the TGI is more than 100 µM.
In the case of `CC(C)(C)OC(=O)N1CCc2c(sc3ncnc(N/N=C/c4cccc5ccccc45)c23)C1`, the GI50 is 5.72 µM and the TGI was more than 100 µM.
For `COc1ccc(-c2c(C#N)c(N)nc3c2CCS(=O)(=O)c2ccccc2-3)cc1`, the TGI is more than 100 µM.
In turn, `N#Cc1cc([N+](=O)[O-])ccc1NC(=O)C(=O)Nc1n[nH]c(N)n1` registered a TGI of more than 100 µM.
The compound `COc1c(C)c2nc3ccccc3[nH]c2c2c(=O)ccnc12` had a TGI of more than 100 µM.
`O=C1C=C(c2ccccc2)O/C1=C/C(=O)c1ccc(Cl)cc1` registered a TGI of more than 100 µM.
`O=C(Cc1ccccc1)NN1C(=O)/C(=C\c2ccc([N+](=O)[O-])cc2)SC1=Nc1ccccc1` had a TGI of more than 100 µM.
For `Nc1cc(N)c2nc(-c3ccccc3)c(Nc3ccc(Cl)c(Cl)c3)nc2c1`, the GI50 is 14.5 µM and the TGI is 30.2 µM.
Consider `COC(=O)Cc1c([C@H]2[C@H](CC(=O)OC)c3ccccc3N2C(C)=O)[nH]c2ccccc12`, for which the TGI was more than 100 µM.
`Nc1ccc2[nH]c(-c3cccc(Cl)c3)cc(=O)c2c1`: the TGI is more than 100 µM.
Regarding `CC(=O)CNC(=O)OC(C)(C)C`, the TGI was more than 100 µM.
Turning to `NC(N)=Nc1ncccc1[N+](=O)[O-]`, the TGI is more than 100 µM.
